In PubChem BioAssay AID1963576 (National Center for Advancing Translational Sciences (NCATS), 2024):
Hit rate of the full screen: of about 46,000 compounds, about 60 (0.1%) were called active. Inconclusive results (about 3%) are left out. Calls follow the shape of the dose curve; as a rule, active = well fitted inhibition curve with a large enough effect; inconclusive = small, poorly fitted or top-dose-only effect; inactive = no such curve, though single readings can be large or run the other way. This is one part of the list.

assay: Primary qHTS assay for Inhibitors of ovarian cancer metastasis using an organotypic tumor microenvironment (TME) model.; also: nearly all actives have a fitted effect of over 65% in size;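 as to activity change, negative = inhibition: plate controls were DMSO wells for no effect and tomatine positive control wells for full effect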; details: SKOV3ip1-GFP adhesion/invasion on 3D omental model, fluorescence; series mostly up to 45.8 µM; activity change, negative = inhibition: at the top concentration
Method in brief: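 qHTS, 4-pt dose (0.36-46 umol/L); SKOV3ip1-GFP, 1,200 cells/well, no FBS; primary omental fibroblast/mesothelial co-culture 48 h pre-grown; 2 h RT + 16 h 37 C; PBS wash, 4% PFA; GFP count 488/509 nm.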

outcome, inactive:
COc1ccc(NC(=O)CSc2ccc(-c3cccs3)nn2)cc1, COc1cccc(NC(=O)CN2C(=O)COc3ccc(S(=O)(=O)N4CCCCCC4)cc32)c1, COC(=O)Cc1c(C)c2cc3c(c(C)c2oc1=O)OCN(CCc1ccc(F)cc1)C3, CCc1ccc(NC(=O)CC2C(=O)N(c3ccc(C)cc3)C(=O)N2CCc2ccncc2)cc1 (stereo unspecified), Cc1cccc(NC(=O)CSc2cn(CC(=O)N3CCCC3)c3ccccc23)c1C, Cc1ccc(Cn2cc(C(=O)c3ccc(C)cc3)c(=O)c3ccc(C)nc32)cc1, Cc1cc(SCC(=O)Nc2ccc(Cl)cc2)nc2ccccc12

Activity change, negative = inhibition, inactive:
COC(=O)c1ccc(NC(=O)N2CCC(CN3CCc4ccccc4C3)CC2)cc1 -4.76%, CCOc1ccc(C(=O)Nc2ccc(C(=O)OCc3cc(=O)n4nc(CC)sc4n3)cc2)cc1 8.61%, CCOc1ccc(-c2c(C)nn3c(-c4ccccc4)c(C(=O)NCCOC)cnc23)cc1OCC -1.62%, O=C(COc1ccc2oc3c(c2c1)CCCC3)Nc1ccc(Cl)cc1 -1.19%, COc1cccc(C(=O)Nc2cc(-c3ccccc3)nn2-c2ccccc2)c1 -6.56%, Cc1ccc(S(=O)(=O)N2CCCc3cc(NC(=O)c4ccc(F)c(F)c4)ccc32)cc1 -0.82%, CCOC(=O)c1ccc(NS(=O)(=O)c2cn(C)c(C)n2)cc1 33.8%, CCS(=O)(=O)c1nc(S(=O)(=O)c2ccc(C)cc2)c(NCc2ccc(Cl)cc2)s1 -8.79%, CN(C)C(=O)COC(=O)Cc1ccc(OC(=O)c2ccc(N=C(N)N)cc2)cc1 8.03%, CCOc1ccc(N(CC)S(=O)(=O)N2CCCC(C(=O)Nc3ccc(NC(C)=O)cc3)C2)cc1 (stereo unspecified) -29.8%, O=C1C2=C(Nc3ccccc3SC2c2ccc(Cl)c(Cl)c2)c2ccccc21 (stereo unspecified) -24.9%, COc1cccc(N2C(=O)C(CC(=O)Nc3ccc(F)cc3)N(CCC3=CCCCC3)C2=O)c1 (stereo unspecified) -13.1%, COc1ccc(NC(=O)N(C(C)C)C2CCN(C(C)=O)CC2)c(OC)c1 -4.41%, Cc1ccc(CCNC(=O)c2cc3cc4cc(C)ccc4nc3s2)cc1 -10.9%, COc1ccccc1Cn1c(CNS(=O)(=O)c2ccc(CC(C)C)cc2)nc2cccnc21 2.62%, CN(C)S(=O)(=O)N1CCC(n2cnc3cccnc32)CC1 -3.8%, CCOc1ccc(NC(=O)Cn2cc(C(=O)c3ccc(OCC)cc3)c(=O)c3cc4c(cc32)OCCO4)cc1 -25.8%, CC(=O)N1CCCc2cc(S(=O)(=O)N3CCCC(C(=O)NCc4ccccc4)C3)ccc21 (stereo unspecified) 14.1%, CCc1ccc(-c2cc(C)no2)cc1S(=O)(=O)Nc1ccc(Cl)cn1 9.05%
